Measurements from PubChem BioAssay (NCI).
Several values for one entry are separate records, joined by “and”; a condition that tells them apart may be missing. Identical values can stand only once.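 Briefly, cells in 96-well plates were exposed to five compound concentrations for 48 h, and endpoints were estimated by linear interpolation. GI50 marks 50% less growth. The concentration for full growth arrest is given as TGI.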 Peptide text beside a SMILES is read from it.

Test system: NCI-H322M lung
Assay: NCI anticancer screen, dose series, 48 h

Compound	TGI	GI50
CCO/C=C1\SC(=S)N(c2ccc(OCC)cc2)C1=O	> 100 µM	–
O=C(CCc1cc(O)cc(O)c1)NCCc1cc(O)cc(OCc2ccccc2)c1	> 100 µM	–
Cc1[nH]n(-c2nc3c(c(=O)[nH]2)CCCC3)c(=O)c1CCO	> 100 µM	–
COc1ccc(CCCCNCc2cccc(CNCCCCc3ccc(OC)cc3)c2)cc1	3.5 µM	–
CC(=O)[CH-]C(=O)c1ccccc1.[C-]#[O+].[C-]#[O+].[Ir]	> 100 µM	> 100 µM
CC(C)C(Cl)CCC(C)(Cl)C(=O)CBr (stereo not given)	> 100 µM	–
CCOC(=O)c1c(NC(=O)c2ccccc2)c(C#N)c2n1CCCCC2	> 100 µM	–
CSc1nc2nc(-c3ccccc3)c(C)c-2c2n1C(C)C(=O)N2 (stereo not given)	> 100 µM	69 µM
CCN(CC)c1ccc2nc3ccc(=[N+](CC)CC)cc-3oc2c1	3.47 µM	0.124 µM
COc1ccc(/C(Nc2ccccc2)=C(\CCl)c2ccccc2)cc1OC	> 100 µM	–
COc1ccc2c(C(=O)O)cc3ccccc3c2c1OC	> 100 µM	–
CC1NOC(=O)C1N=Nc1ccc(Cl)cc1Cl (stereo not given)	66.4 µM	–
O=C1NC(=O)C2C(=O)NC(=O)C1C2Cc1ccco1 (stereo not given)	> 100 µM	–
CCCCS(=O)c1sc2nc(-c3cccs3)cc(-c3ccccc3)c2c1N (stereo not given)	> 100 µM	25.2 µM
CCc1ccc(Nc2cc(C)c3ccc(O)cc3n2)cc1	27.5 µM	13.6 µM
O=C(CCCC(=O)Nc1ccc(Cl)cc1Cl)CC(=O)c1ccc2ccccc2c1	> 100 µM	–
COC(=O)c1c(C)cccc1/C=C1\Cc2ccc(C)c(C)c2C1=O	> 100 µM	–
N#Cc1ccc(Sc2nc3ccccc3[nH]2)cc1	> 100 µM	–
NNc1nnc(CCCCCCCCc2nnc(NN)n2N)n1N	> 100 µM	–
C#Cc1ccc(-n2c(/C=C/c3ccc(O)cc3)nc3ncccc3c2=O)cc1	> 100 µM	5.58 µM
C=CCN(CC=C)C(=O)c1cc(C)nc2c1c(=O)n(-c1ccccc1)c(=O)n2CCCN1CCN(c2ccccc2OC)CC1	> 50 µM	> 50 µM
COc1ccc2nc(NC(=O)C(=O)CC(=O)c3ccc([N+](=O)[O-])cc3)sc2c1	> 100 µM	–
CC(C)C[C@@H]1NC(=O)[C@@H]2CCCN2C(=O)[C@@H]2CCCN2C(=O)[C@H](CC(C)C)NC(=O)[C@H](CO)NC(=O)[C@H](CCCCN)NC(=O)[C@H]([C@H](C)O)NC(=O)[C@@H]2CSSC[C@@H](NC1=O)C(=O)N[C@@H](Cc1ccccc1)C(=O)N1CCC[C@H]1C(=O)N[C@@H](CC(=O)O)C(=O)NCC(=O)N[C@@H](CCCN=C(N)N)C(=O)N2 (HELM PEPTIDE1{C.[C[C@H](O)[C@H](N[*:1])C(=O)[*:2]].K.S.L.P.P.L.[dC].F.P.D.G.R}$PEPTIDE1,PEPTIDE1,1:R3-9:R3|PEPTIDE1,PEPTIDE1,1:R1-14:R2$$$V2.0)	> 50 µM	> 50 µM

Compound	TGI	GI50
COc1cc(/C=C/c2cc(/C=C/c3ccc(O)c(OC)c3)n(C(=O)c3ccccc3Br)n2)ccc1O	40.1 µM	3.5 µM
CC(C)Cc1ccc(C(C)/C=C2\CCC(CN(C)C)C2=O)cc1 (stereo not given)	37.4 µM	–
Cc1c(C)c2c(c(N)c1C#N)C(=O)N(Cc1ccc(S(N)(=O)=O)cc1)C2=O	> 100 µM	–
CCN(CC)CCNc1ccc2ncn3c4ccc(O)cc4c(=O)c1c23	15.5 µM	–
COc1ccc(-c2oc3cc(-c4cc5oc(-c6ccc(OC)cc6)c(-c6ccc(OC)cc6)c5cc4OC)c(OC)cc3c2-c2ccc(OC)cc2)cc1	> 100 µM	–
C=CCNC(=O)C(C)C1CCC2(C)C=CC(=O)C(C)=C2C1O (stereo not given)	> 100 µM	–
CCN1/C(=C/C#C/C(C)=C\c2sc3ccc(Cl)cc3[n+]2CC)Sc2ccc(Cl)cc21	10.4 µM	–
CC(=O)O[C@H]1CC2C(C3CC[C@H](C(C)CCC(=O)O)[C@]31C)[C@H](OC(C)=O)C[C@@H]1CC3(CC[C@]21C)OOC1(CCC(C)CC1)OO3 (stereo not given in full)	36.7 µM and 16.9 µM	22.1 µM and 3.66 µM
C1CSCCSCCCS[C@@H]2CCCCC2SC1 (stereo not given in full)	> 100 µM	–
CCOC(=O)/C(=C\c1cccc(C)c1)C(C)=O	37.4 µM	–
CCCCCCCCCCCC[C@@H](O)[C@H]1CC[C@H]([C@H](O)CC[C@H](O)[C@@H]2CC[C@@H](CCCCCCCC3=C[C@H](C)OC3=O)O2)O1	> 50 µM	9.01 µM
O=C(c1ccccc1)[C@H]1Nc2ccc(Cl)cc2[C@H]2CCC[C@@H]12	> 100 µM	–
Cc1cc(Br)c(NC(=O)c2c(-c3c(Cl)cccc3Cl)noc2C)c(Br)c1	> 100 µM	> 100 µM
Cc1ccc(NC(=O)c2cc(S(=O)(=O)Nc3nnc(-c4ccccc4)c(-c4ccccc4)n3)c(SCc3ccccc3)cc2Cl)cc1	42.5 µM	17.7 µM
CC(=O)c1ccc(N=NN2CCCC2)cc1	> 100 µM	–
CC(=O)NC1C(O[C@H]2C[C@H]3[C@@H]4CC=C5C[C@@H](O)CC[C@]5(C)[C@H]4CC[C@]3(C)[C@H]2[C@H](C)C(=O)CCC(C)C)OCC(O)C1O (stereo not given in full)	24.9 µM	6.14 µM
CC(=O)c1ccc(Nc2c3c(nc4ccccc24)CCCC3)cc1	> 100 µM	–
COc1ccc2nc3c(c(N)c2c1)C1CCC3C1(C)C (stereo not given)	> 100 µM	–
N#CC1CC(c2ccccc2)Nc2cc(Cl)ccc2N1 (stereo not given)	> 100 µM	–
CCCC(=O)CC(C)C(=O)C(=O)NC12CC3CC(CC(C3)C1)C2 (stereo not given)	> 100 µM	–
O=NN(CCCl)C(=O)NC1CCC(CC(=O)O)CC1 (stereo not given)	> 100 µM	–
C[C@H]1CC[C@@]2(OC1)O[C@H]1C[C@H]3[C@@H]4CC[C@@H]5C[C@@H](OC6OC(CO)C(O)C(O)C6OC6OC(CO)C(O)C(O)C6O)CC[C@]5(C)[C@H]4CC[C@]3(C)[C@H]1[C@@H]2C (stereo not given in full)	3.6 µM	–
Cc1nc2c(sc3nc4c(cc32)CCC4)c(=O)o1	> 100 µM	–

Compound	TGI	GI50
O=c1[nH]c(N/N=C\C(O)C(O)C(O)C(O)CO)nc2ccccc12 (stereo not given)	> 100 µM	–
COc1ccc(-c2c(C3=NCCCN3)nnn2-c2ccccc2)cc1	> 100 µM	–
OC(c1ccccc1Br)(c1ccccc1Br)C(F)(F)F	> 100 µM	–
Nc1nc(=S)c2ncn(C3OC(COP(=O)(O)O)C(O)C3O)c2[nH]1 (stereo not given)	> 100 µM	5.31 µM
Cc1ccc(S(=O)(=O)N(CC(O)COc2ccccc2)c2c(F)cccc2F)cc1 (stereo not given)	94.4 µM	–
CN=c1sc2c(n1C)C(=O)c1ccccc1C2=O	5.22 µM	–
CSc1nncc(-c2cc3c(c(SC)n2)CCCC3)n1	> 100 µM	–
O=C(c1ccc(Cl)cc1)N(C(=O)N1CCCCC1)c1ccccc1	> 100 µM	–
COc1ccc(C(O)c2cc3c(N)c(C(=O)Nc4cccc5ccccc45)sc3nc2C)cc1 (stereo not given)	> 100 µM	0.589 µM
COC(=O)/C=C(\C(=O)OC)c1cc(C)c2cc(C(C)C)ccc(C)c1-2	> 100 µM	–
CCCCCCCCCCCCCCCCCCNc1ccn(C2OC(COP(=O)(O)OCC3OC(n4ccc(N)nc4=O)C(O)C3O)C(O)C2O)c(=O)n1 (stereo not given)	> 100 µM	–
COc1ccc(Nc2cnc3cc(N)cc(N)c3n2)cc1	94.1 µM	25.7 µM
CCCCCCCCOCC(COC(=O)CCCCCCC)OC(=O)CCCCCCC (stereo not given)	> 100 µM	–
CC(=O)NC1C(OCC(=O)NCCNc2ccc([N+](=O)[O-])c3[nH]c4ccccc4c(=O)c23)C(O)C(CO)OC1(C)OCc1ccccc1 (stereo not given)	> 100 µM	–
C[C@@H]1CC[C@]2(C)C3(C)CC[C@]2(OC3=O)[C@@]12CC(c1ccoc1)OC2=O (stereo not given in full)	> 100 µM	–
CC(C)(C)OC(=O)N(CCCCNC(=O)C(F)(F)F)CCCNC(=O)C(F)(F)F	> 100 µM	–
CCSCC1CC(O)(c2ccccc2)C(c2ccccc2)C(c2ccc(F)cc2)O1 (stereo not given)	6.52 µM	2.27 µM
CC1=NN(c2nc(N)nc(C(C)Cl)n2)C(C)(C)C1 (stereo not given)	> 100 µM	–
Cc1cnc(C(=O)NNc2nc3sc4c(c3c(=O)[nH]2)C(C)CCC4)cn1 (stereo not given)	41 µM	0.488 µM
Cn1c(=O)c2nc3sc4c(n3c2n(C)c1=O)C(=O)c1ccccc1C4=O	> 66.8 µM	–
C=C(CN1CCc2[nH]c3ccc(F)cc3c2C1)c1ccc(C(=O)Nc2ccccc2N)cc1	20 µM	5.26 µM
COC(=O)C(C(=O)C(=O)Nc1c(Cl)cc([N+](=O)[O-])cc1Cl)c1csc(-n2nc(C3=CCCCC3)cc2-c2ccccc2)n1 (stereo not given)	> 100 µM	–
N#CC(C#N)=C/C=C(\Sc1ccc(Cl)cc1)c1ccc(F)cc1	15.6 µM	4.69 µM
